# According to the supplement of paper PMC7826260:
# Some of the results follow. Each Rep nickase domain was tested in vitro on the same pool of single strands for 1 h at 37 °C with 3 µM enzyme; only the middle of the 90-letter strands is printed. Values are log2 of uncut reads against the no-enzyme pool; uncut sequences lie near 0, cut ones below; no hit call is given. Because reads are shares of a total, they shift together; where an enzyme cuts many sequences, the uncut ones exceed 0.
# Tested on: T1, Rep nickase domain of tomato golden mosaic virus
# T1 sequence (protein, residues 1-124, tag omitted): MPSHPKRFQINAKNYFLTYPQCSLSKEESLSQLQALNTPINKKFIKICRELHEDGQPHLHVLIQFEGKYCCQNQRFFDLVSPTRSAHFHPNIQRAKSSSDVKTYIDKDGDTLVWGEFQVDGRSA
# Experiment: uncleaved DNA left, log2 of reads against the no-enzyme library (log2 ratio); higher = less cleavage (more negative = more Rep cleavage of the k-mer); sequences stand for … in CTCGTCCG…ACCGGAGA
# Method: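 A pool of 90-nt single-stranded DNAs with seven random bases just before the constant AC of the nick site (name = the seven bases) was cut by 3 µM recombinant His6-SUMO-tagged Rep nickase domain (300 nM DNA, 50 mM HEPES pH 8.0, 50 mM NaCl, 1 mM MnCl2, 1 h, 37 °C, three replicates). Uncut DNA was amplified and sequenced.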
row,Sequence,uncleaved DNA left (log2)
1,ATACGCG,0.0101
2,CATCAAA,0.0534
3,AGAAGTT,0.153
4,TTCCCTG,-0.13
5,GGTCAGC,0.186
6,CTTTAGG,0.0884
7,TGAATTA,0.0271
8,ACCTGTC,-0.0927
9,CTCCACT,-0.0427
10,AAAGGTC,0.114
11,AGGTCTA,0.043
12,TTAACCT,0.00901
13,CATCCTA,-0.0741
14,GTTAAAA,0.0715
15,AAGTAAT,0.105
16,AACATTG,0.0113
17,CAGTCTA,-0.129
18,ATGTGTC,-0.0246
19,TATCTTT,-0.0977
20,CTCCGAC,-0.187

row,Sequence,uncleaved DNA left (log2)
1,ATAATCC,0.0505
2,GGCAATA,0.0806
3,TGACATG,-0.105
4,CTGACTC,-0.287
5,TAAAGTG,-0.0443
6,CGGATGC,-0.125
7,CCGAAAA,0.0535
8,TTGGTTC,-0.0328
9,TCTAGTT,0.0415
10,ACCTAGC,0.00367
11,AGGGCGG,0.243
12,AATGGGG,0.0174
13,TTAGCAC,-0.0195
14,TGTGCCA,0.0965
15,TAGGTTT,0.129
16,ACCCTAA,-0.0147
17,AGGGATC,-0.0971
18,AGTCAGC,0.0577
19,GGATACG,0.0256
20,ATTCCGG,0.0633
